Structures are written as SMILES. Screen size: about 48,000 compounds; about 1,200 (2.5%) were called active. Not shown: some 2% with an inconclusive outcome.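 Rule for the calls: active = activation of at least 60% and not above a set upper limit (about 1 call in 100 departs from these limits); inconclusive = activation of 40% to 60%, or above that upper limit; inactive = activation under 40%.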 The list shows a part of the results.

UniProt O75388, sequence (O75388 whole entry, looked up): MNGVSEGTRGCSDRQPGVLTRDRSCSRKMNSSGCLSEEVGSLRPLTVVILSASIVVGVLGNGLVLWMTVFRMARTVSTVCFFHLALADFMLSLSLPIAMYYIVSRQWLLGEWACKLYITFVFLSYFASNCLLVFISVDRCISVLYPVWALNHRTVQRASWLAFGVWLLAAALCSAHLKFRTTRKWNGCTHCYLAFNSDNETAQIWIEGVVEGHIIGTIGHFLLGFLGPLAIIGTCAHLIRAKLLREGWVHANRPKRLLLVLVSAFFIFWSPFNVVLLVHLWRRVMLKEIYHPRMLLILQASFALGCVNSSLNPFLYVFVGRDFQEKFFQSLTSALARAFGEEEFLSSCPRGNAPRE

The assay deals with Probable G-protein coupled receptor 32 (Homo sapiens) (UniProt O75388). The assay can be described thus: qHTS for Agonists of Human Resolvin D1 Receptor DRV1. Note: 0% is about no effect. Particulars: CHO-K1 GPR32 beta-arrestin PathHunter luminescence, 90 min; at 76.9 µM; stronger effect = higher value; zero percent set by DMSO-only wells. The gist of the method:
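Readings come from a cell-based beta-arrestin complementation format: CHO-K1 GPR32 stable cells (2,500/well) treated 90 min with compounds, then beta-Gal substrate added for 1 h before chemiluminescence imaging.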
(qHTS replaces the single test concentration by a dilution series.)
As for `CCC(C)(C)c1ccc(CC(C)CN2C[C@@H](C)O[C@@H](C)C2)cc1` (stereo partly drawn), the activation is active: 113%.
Turning to `CCOc1ccc(NC(=O)CN2CCN(CC(=O)Nc3ccccc3OCC)CC2)cc1`, the activation is inactive: -9.9%.
As to `Cc1cc(C(=O)Nc2c(C)nn(Cc3ccc(F)cc3)c2C)no1`, the activation is inactive: 11.4%.
With `NC(=O)C1CCN(C(=O)Cn2c(-c3cccs3)cc3ccccc32)CC1` the figure was inactive: -17%; with `COc1ccc(Cl)cc1NC(=O)CSc1nc(-c2ccco2)cc(C(F)(F)F)n1`, inactive: -11.9%; with `CCOc1cc(C(=O)N2CCC(c3ccncc3)CC2)cc(OCC)c1OCC`, inactive: -9.59%.
Under `COc1ccc(CCNC(=O)CCn2c(=O)c3cccn3c3cccnc32)cc1OC` stands inactive: 7.83%; under `CCc1ccccc1Nc1nc2ccccc2n2cnnc12`, inactive: -12.1%.
Under `CCCCN(c1ccccc1)S(=O)(=O)c1ccc2c(c1)CC(C)N2C(=O)C1CC1` (stereo not drawn) stands inactive: -25.1%.
`CC1CN(S(=O)(=O)c2ccc3c(c2)NC(=O)CC(=O)N3)c2ccccc2O1` (stereo not drawn): the activation is inactive: 8.81%.
Under `COc1ccccc1-n1nc(-c2ccccc2)c2cnc3cc(C(F)(F)F)ccc3c21` stands inactive: -6.26%; under `CCOC(=O)c1ccc(NC(=O)COC(=O)c2cn(CC)c3nc(C)ccc3c2=O)cc1`, inactive: 3.89%.
Under `Cc1cccc(C)c1OC(=O)CSc1nnc(-c2cccs2)o1` stands inactive: 3.59%.
With `COc1ccc(-c2oc3ncn4nc(-c5ccccc5C)nc4c3c2-c2ccc(OC)cc2)cc1` the figure was inactive: -7.27%; with `COc1ccc(CNC(=O)CCc2nnc3n(CC(C)C)c(=O)c4ccccc4n23)cc1`, inactive: -0.84%; with `CCOC(=O)c1ccc(C#Cc2ccc3c(c2)C(C)(C)CCS3)nc1`, inactive: 11.6%.
Consider `Cc1ccc(C)c(CN2C(=O)c3ccccc3S(=O)(=O)c3ccc(C(=O)N4CCN(c5ccccc5F)CC4)cc32)c1`, for which the activation is inactive: -11.5%.
With `O=S(=O)(Nc1ccc(-c2ccc(N3CCCC3)nn2)cc1)c1cccc(C(F)(F)F)c1` the figure was inactive: 5.4%.
With `CCn1ccc2cc(S(=O)(=O)N3CCCN(C(=O)NCCOC)CC3)ccc21` the figure was inactive: 19.3%.
With `CC(C)N(CCC(=O)c1ccc2ccccc2c1)Cc1ccccc1` the figure was inactive: -9.1%; with `COc1ccc(C)cc1NS(=O)(=O)c1ccc2[nH]c(=O)c(=O)[nH]c2c1`, inactive: -8.31%; with `CCS(=O)(=O)N1CCc2cc(C(=O)Nc3cc(C(F)(F)F)ccc3Cl)ccc21`, inactive: -0.73%.
In the case of `COc1cccc(NC(=O)Cn2c(=O)n(CCCCC(=O)NCCc3ccccc3)c(=O)c3ccccc32)c1`, the activation is inactive: 5.53%.

Values taken from PubChem BioAssay AID1346428 (National Center for Advancing Translational Sciences (NCATS), 2018).
